Test results as given in PubChem BioAssay AID504332 (National Center for Advancing Translational Sciences (NCATS), 2011).
Hit rate of the full screen: of about 350,000 compounds, about 31,000 (8.9%) were called active. The shares of active, inactive and inconclusive entries below differ from those in the screen. Calls come from the whole dose curve; as a rule, active = well fitted inhibition curve with a large enough effect; inconclusive = small, poorly fitted or top-dose-only effect; inactive = no such curve, though single readings can be large or run the other way. Potencies of inconclusive entries are doubtful fits and often do not repeat. Where a structure was tested more than once in an assay, its records may differ in their call.

What follows are molecules tested against Histone-lysine N-methyltransferase EHMT2 (Homo sapiens) (UniProt Q96KQ7) (assay: qHTS Assay for Inhibitors of Histone Lysine Methyltransferase G9a). Settings: G9a H3K9 monomethylation, AlphaScreen, 2 h; activity, negative = inhibition: at 59 µM (top of the series) unless noted.
Procedure, shortened: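 Using a bead-based AlphaScreen, monomethylated H3K9 product from 2 h room-temperature reactions (G9a 20 nM, peptide 500 nM, SAM 20 uM) was detected with 0.5 ug/mL rabbit anti-H3K9me1 antibody.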
% is set by controls: 0 for no effect and ±100 for the full control effect; potency is the fitted concentration of half-maximal effect; tags give direction and shape of the fitted curve.
Note: nearly all actives have a fitted effect of over 75% in size.

Chain of UniProt Q96KQ7 (Q96KQ7 whole entry, looked up): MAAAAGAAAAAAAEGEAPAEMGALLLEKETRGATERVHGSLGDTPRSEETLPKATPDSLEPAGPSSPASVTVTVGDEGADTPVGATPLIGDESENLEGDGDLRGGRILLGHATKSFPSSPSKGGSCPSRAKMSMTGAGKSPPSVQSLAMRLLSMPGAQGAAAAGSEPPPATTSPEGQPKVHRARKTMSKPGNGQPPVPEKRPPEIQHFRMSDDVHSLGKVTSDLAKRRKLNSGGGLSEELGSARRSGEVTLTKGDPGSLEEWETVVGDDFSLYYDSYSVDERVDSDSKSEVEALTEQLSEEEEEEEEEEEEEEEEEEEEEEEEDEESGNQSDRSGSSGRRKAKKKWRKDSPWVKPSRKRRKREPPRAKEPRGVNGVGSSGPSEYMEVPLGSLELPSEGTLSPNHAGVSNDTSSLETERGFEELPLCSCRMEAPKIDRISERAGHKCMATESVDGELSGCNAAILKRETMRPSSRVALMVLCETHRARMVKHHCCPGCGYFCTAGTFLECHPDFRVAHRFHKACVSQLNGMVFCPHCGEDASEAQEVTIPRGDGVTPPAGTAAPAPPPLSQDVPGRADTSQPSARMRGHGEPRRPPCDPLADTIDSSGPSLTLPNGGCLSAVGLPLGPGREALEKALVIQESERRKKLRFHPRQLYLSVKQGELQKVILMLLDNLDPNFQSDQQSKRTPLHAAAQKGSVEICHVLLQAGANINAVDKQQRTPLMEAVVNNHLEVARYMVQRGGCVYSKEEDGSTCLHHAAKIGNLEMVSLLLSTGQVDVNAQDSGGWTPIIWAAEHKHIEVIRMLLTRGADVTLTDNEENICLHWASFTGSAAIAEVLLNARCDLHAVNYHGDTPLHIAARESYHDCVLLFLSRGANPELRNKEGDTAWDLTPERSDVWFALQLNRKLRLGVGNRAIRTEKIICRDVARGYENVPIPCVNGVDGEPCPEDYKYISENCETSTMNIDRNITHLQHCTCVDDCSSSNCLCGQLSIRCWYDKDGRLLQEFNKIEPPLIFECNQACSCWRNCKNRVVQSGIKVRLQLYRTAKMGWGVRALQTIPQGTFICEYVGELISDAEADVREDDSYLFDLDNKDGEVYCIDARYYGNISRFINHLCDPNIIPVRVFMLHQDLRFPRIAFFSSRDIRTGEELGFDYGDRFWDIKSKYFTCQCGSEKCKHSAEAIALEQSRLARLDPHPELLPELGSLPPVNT

Q: `Cc1nncn1-c1ccc(C(=O)Nc2cc(F)ccc2F)cc1` was tested. Which Potency did it give?
A: inactive

Q: For `COc1cc(OC)c(OC)cc1CNc1sc2c(c1C(=O)Nc1ccccc1OC)CCC2`, which Potency is on record?
A: active: 12.6 µM

Q: `COc1ccc(N/C=C/c2nc(SC)nnc2C)cc1` was tested. Which Potency did it give?
A: inconclusive: 50.1 µM [inhibitor, partial curve, poor fit]

Q: Which activity, negative = inhibition does the source give for `COCCCNC(=O)/C=C/c1ccc(Cl)cc1` here?
A: inconclusive: -54.8% [inhibitor] [at 102 µM]

Q: How did the Potency turn out when `CCOC(=O)Cn1c(-c2cccnc2)nc(-c2ccccc2)c1-c1ccccc1` was run?
A: inconclusive: 56.2 µM [inhibitor, partial curve, poor fit]

Q: With `Cc1ccccc1NC(=O)CN1C(=O)S/C(=C\c2ccc(-c3cc(C(=O)O)ccc3C)o2)C1=O` as the molecule, how does the Potency read?
A: active: 5.01 µM

Q: `O=C(O)c1ccc(CSc2nnc(-c3ccncc3)n2-c2ccc(Cl)cc2)cc1` was tested. Which Potency did it give?
A: inconclusive: 89.1 µM [inhibitor, single point]

Q: For `O=C1c2ccccc2C(=O)N1C1CCCCC1`, which Potency is on record?
A: inactive

Q: Which Potency does the source give for `CN(C)S(=O)(=O)c1cccc(NC(=O)c2cc(-c3cccs3)nn2-c2ccccc2)c1` here?
A: inactive

Q: How did the Potency turn out when `COc1ccc(-c2ccc(CCC(=O)O)n2CC(=O)Nc2ccccc2C)cc1` was run?
A: inconclusive: 44.7 µM [inhibitor, partial curve, poor fit]

Q: For `CCn1c(C(=O)N2CCCC(C(=O)N3CCN(c4cc(C)ccc4C)CC3)C2)cc2sccc21` (stereo not given), which Potency is on record?
A: inactive

Q: Which Potency does the source give for `CCN(CC)c1ccc(NC(=O)c2sc3nc4c(cc3c2N)CN(C)CC4)cc1` here?
A: inconclusive: 0.891 µM [inhibitor, full curve, poor fit]

Q: `COc1cc2c(cc1OC)C(COc1cc(C)cc(C)c1)N(C(=O)COc1ccccc1)CC2` (stereo not given) was tested. Which Potency did it give?
A: inconclusive: 22.4 µM [inhibitor, partial curve, poor fit]

Q: For `CN(Cc1ccccc1)C(=O)COC(=O)Cn1cnc2ccccc21`, which Potency is on record?
A: inconclusive: 79.4 µM [inhibitor, single point]

Q: `C#CCOCCOCCOCCNc1nc(N2CCN(C(=O)Cn3cc(CC(C)O)nn3)CC2)nc(N2CCN(C(=O)Cn3cc(CC(C)O)nn3)CC2)n1` (stereo not given) was tested. Which Potency did it give?
A: inconclusive: 89.1 µM [inhibitor, single point]

Q: How did the Potency turn out when `CCN(C(=O)CSc1cc(C)c2ccccc2n1)c1c(N)n(Cc2ccccc2)c(=O)[nH]c1=O` was run?
A: inconclusive: 35.5 µM [inhibitor, partial curve]

Q: For `O=C(Nc1nccs1)c1ccc(Br)c(S(=O)(=O)N2CCOCC2)c1`, which Potency is on record?
A: inactive

Q: For `CCCCC(=O)Nc1ccc2c(c1)nc1n2CCSC1`, which Potency is on record?
A: inconclusive: 1.78 µM [inhibitor, partial curve, poor fit]

Q: Which Potency does the source give for `O=C(NC(=S)Nc1ccc(CN2CCOCC2)cc1)c1ccc(-c2cccc(Cl)c2)o1` here?
A: inconclusive: 22.4 µM [inhibitor, full curve]

Q: How did the Potency turn out when `CC1=C(C(=O)Nc2ccccc2)C(c2cccs2)C(C#N)=C(SCC#N)N1` (stereo not given) was run?
A: active: 12.6 µM

Q: With `CCSc1nnc(NC(=O)NC(CC)(C(F)(F)F)C(F)(F)F)s1` as the molecule, how does the Potency read?
A: inconclusive: 70.8 µM [inhibitor, single point]

Q: How did the Potency turn out when `Cc1c(C(=O)NCCSCc2ccco2)cccc1[N+](=O)[O-]` was run?
A: inactive

Q: Which Potency does the source give for `Cc1ccc(C(CC(=O)O)NC(=O)c2ccc(S(=O)(=O)N3CCCC3)cc2)cc1` (stereo not given) here?
A: inconclusive: 3.98 µM [inhibitor, full curve, poor fit]

Q: Which Potency does the source give for `Cc1cccc(N2CCc3c2nc2ccc(Br)cc2c3N)c1` here?
A: inconclusive: 22.4 µM [inhibitor, single point]

Q: For `CCN(CC)c1ccc(NC(=O)CCc2nnc3ccc(N4CCCC4)nn23)c(C)c1`, which Potency is on record?
A: inconclusive: 79.4 µM [inhibitor, partial curve, poor fit]

Q: With `CC(=O)Nc1ccc(-c2csc(NC(=O)C3CSC4(C)CCC(=O)N34)n2)cc1` (stereo not given) as the molecule, how does the Potency read?
A: inactive

Q: How did the Potency turn out when `Cc1ccc(C2=Nc3ccccc3N(CC(=O)NCc3ccccc3Cl)C(=O)C2)cc1C` was run?
A: inactive

Q: For `O=C(NCCc1ccc(Cl)cc1)c1ccc(S(=O)(=O)N2CCCC2)cc1`, which Potency is on record?
A: inconclusive: 50.1 µM [inhibitor, partial curve]

Q: Which Potency does the source give for `COc1ccc(C2C(=O)c3ccccc3C2=Nc2ccc(Br)cc2)cc1` (stereo not given) here?
A: inconclusive: 7.94 µM [inhibitor, full curve, poor fit]

Q: For `CCN(CC(=O)Nc1ccc(NC(C)=O)cc1)C(=O)COc1ccccc1Cc1ccccc1`, which Potency is on record?
A: inactive

Q: Which Potency does the source give for `CCC(C)c1ccc(S(=O)(=O)N2CCN(CC(O)COCC3CCCO3)CC2)cc1` (stereo not given) here?
A: active: 10 µM

Q: How did the Potency turn out when `COc1ccc(-n2ncc(C(=O)Nc3cccc(C(F)(F)F)c3)c2C2CCN(C(=O)OC(C)(C)C)CC2)cc1` was run?
A: inconclusive: 5.62 µM [inhibitor, single point]

Q: How did the Potency turn out when `Cc1ccc[n+](-c2nc3ccccc3nc2C(=C=[N-])C#N)c1` was run?
A: active: 50.1 µM

Q: How did the Potency turn out when `O=C(O)CSc1ncnc2c1oc1ccccc12` was run?
A: inactive

Q: For `Cc1ccc(S(=O)(=O)N(CC(=O)NCCSc2ccccn2)c2cc(C)cc(C)c2)cc1`, which Potency is on record?
A: inactive

Q: Which Potency does the source give for `O=C(c1cccc(C(F)(F)F)c1)C1CCCN(C(=O)CN2CCCC2=O)C1` (stereo not given) here?
A: inconclusive: 31.6 µM [inhibitor, partial curve, poor fit]

Q: With `CC1CCN(C(=O)CSc2nnc3c(n2)[nH]c2ccccc23)CC1` as the molecule, how does the Potency read?
A: inactive

Q: For `Cc1ccccc1CN1c2ccccc2-c2nc(SCC(=O)NCc3ccccc3)ncc2S1(=O)=O`, which Potency is on record?
A: inactive

Q: Which Potency does the source give for `CCOC(=O)c1nn(-c2ccccc2C)c(=O)c(C#N)c1C` here?
A: active: 89.1 µM

Q: For `Cc1ccc(S(=O)(=O)N(C)c2ccc(N)cc2)cc1`, which Potency is on record?
A: inactive

Q: Which Potency does the source give for `NS(=O)(=O)c1ccc(CCNC(=O)CCc2nc3sc4c(c3c(=O)[nH]2)CCCC4)cc1` here?
A: inconclusive: 100 µM [inhibitor, single point]

Q: With `C/C(=N\Nc1ccc(F)cc1)c1ccc(N2CCOCC2)c(F)c1` as the molecule, how does the Potency read?
A: active: 28.2 µM

Q: For `O=C(CCC1CCCCC1)NNC(=O)c1cnccn1`, which Potency is on record?
A: inconclusive: 0.562 µM [inhibitor, full curve, poor fit]

Q: How did the Potency turn out when `CC(C)C(=O)NCC(c1ccc2c(c1)OCO2)N1CCN(c2ccccc2)CC1` (stereo not given) was run?
A: inactive

Q: Which Potency does the source give for `Cc1c(C(=O)NCCc2ccc(Cl)cc2)sc2nc3n(c(=O)c12)CCCC3` here?
A: inconclusive: 35.5 µM [inhibitor, single point]
